This is one part of the list.
Molecular target: T1, OsWOX13 (Oryza sativa, UniProt Q5QMM3 1-267)
T1 sequence: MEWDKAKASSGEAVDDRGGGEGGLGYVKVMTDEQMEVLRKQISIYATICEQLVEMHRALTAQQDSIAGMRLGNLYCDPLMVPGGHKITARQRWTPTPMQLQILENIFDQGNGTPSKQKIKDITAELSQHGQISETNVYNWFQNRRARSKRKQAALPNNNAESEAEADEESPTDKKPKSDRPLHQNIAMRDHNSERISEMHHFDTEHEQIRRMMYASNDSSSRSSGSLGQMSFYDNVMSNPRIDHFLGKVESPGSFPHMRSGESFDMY
Experiment: protein-binding microarray (RPBM); PBS, 2% BSA, 51.3 ng/ul salmon testes DNA, 50 uM zinc acetate, 200 nM TF, 25 C, 1 h; high values mean tight binding
Conditions: protein: recombinant; tags: N-terminal polyhistidine and DsRed monomer fusion (pET32a); label: CyDye5-dUTP incorporated in the synthesized complementary strand; 3' TTTTT single-stranded linker to array surface; dsDNA, one strand shown
In short: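 Binding signal is reported as fluorescence intensity per feature (arbitrary units) from an Axon 4000B scanner. Incubation used 200 nM of each Ni–NTA-purified, N-terminally polyhistidine- and DsRed-fused transcription factor from E. coli BL21-CodonPlus on a double-stranded custom Agilent array for 1 h at 25 °C, with 50 µM zinc acetate in the buffer, followed by washing.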

Sequence	binding signal
CCGATACTAGTAATTTGTTAATCGCGTCCGTTAGTCTACGCGGAGTCACCTAGTGCAG	7740 fluorescence intensity (a.u.)
ACTAAAACTCGATAATTATTCGGTGTATTATGCGAGCACGCGGAGTCACCTAGTGCAG	11900 fluorescence intensity (a.u.)
GGATTAATTAGGCTTAATAAATTCATCTCGCAGTTTTCTGCGGAGTCACCTAGTGCAG	26200 fluorescence intensity (a.u.)
TTAATGACGGATTAATTAGACTTAATAAATTCTTCTCGCACGGAGTCACCTAGTGCAG	34500 fluorescence intensity (a.u.)
CCCCACTCTAACTCTCGTGTTGATTGCAGCGAATTTAGATCGGAGTCACCTAGTGCAG	5270 fluorescence intensity (a.u.)
TCTCTACCAATCATATTTATTCTTCATCTATTATGAAGACCGGAGTCACCTAGTGCAG	7220 fluorescence intensity (a.u.)
CCATTTAATTTAATTTATTTATACAGCAAAAGAATTCATGCGGAGTCACCTAGTGCAG	26100 fluorescence intensity (a.u.)
CTTGTTCTTCTTAGTTCATCAATCAACATGATGAAATATTCGGAGTCACCTAGTGCAG	4600 fluorescence intensity (a.u.)
ACATAACTAATCAAGTTTTAATTGCTCTAAATTTAAAATTCGGAGTCACCTAGTGCAG	15700 fluorescence intensity (a.u.)
TTTCAAAATTTAAACAATTTCCAGCATTTTGGCCTGGAAGCGGAGTCACCTAGTGCAG	3340 fluorescence intensity (a.u.)
ATTTGATCTGATTTGATTAATTTTGCATGCACGCGAATGGCGGAGTCACCTAGTGCAG	61700 fluorescence intensity (a.u.)
TTAATTTGATCAAATATAACAAGTTTAAGTTAGGAGTTAGCGGAGTCACCTAGTGCAG	26800 fluorescence intensity (a.u.)
AGCATTACTAATTTGCTTCATATATTGTGTTTTGTGATGTCGGAGTCACCTAGTGCAG	7040 fluorescence intensity (a.u.)
TTTGATTGAAAGCAAATAAGTATGATATAGTTATATTTAACGGAGTCACCTAGTGCAG	26700 fluorescence intensity (a.u.)
TGTGACAAATGAGACAAATTTGACTAGGTGTCACATTGCTCGGAGTCACCTAGTGCAG	18800 fluorescence intensity (a.u.)
TGAGATAATTTTAAAATGCTAGAAACTGCTATATCTTCGGCGGAGTCACCTAGTGCAG	19500 fluorescence intensity (a.u.)
ACTGATAGAGCTGTAATAAGCGAGCACCCATACACCATGGCGGAGTCACCTAGTGCAG	16700 fluorescence intensity (a.u.)
AGGGAAAGTTGTGATTGAGGGAGGATGTTAGATAATGTTACGGAGTCACCTAGTGCAG	10100 fluorescence intensity (a.u.)
TCAGACATGTCTTTAATCGTGATTTTGATCTAATAGAAGGCGGAGTCACCTAGTGCAG	4880 fluorescence intensity (a.u.)
ATCCAATTACCGTTATTACACTTATGGGTTATCTGAATATCGGAGTCACCTAGTGCAG	15500 fluorescence intensity (a.u.)
TAATTAATTAGCACATGTTAAAAGTGGCAAGTTAAATGTCCGGAGTCACCTAGTGCAG	18400 fluorescence intensity (a.u.)

Sequence	binding signal
TTGAAACTAATTAGAAGTATTAAACGTAGACTAATGATAACGGAGTCACCTAGTGCAG	12600 fluorescence intensity (a.u.)
AATATATTATATTAATTATTCAAAATCACTCATTTATGCTCGGAGTCACCTAGTGCAG	5640 fluorescence intensity (a.u.)
GAGATAGAGATAATAGAAAGATTAAACAAGATTCGATAGACGGAGTCACCTAGTGCAG	3590 fluorescence intensity (a.u.)
GCCAATTAACCAATCGGCGTCGTCAGGCCTCTCGCGTGTGCGGAGTCACCTAGTGCAG	11200 fluorescence intensity (a.u.)
TTACGCCTATCATGTATTTGATTTGCATAGAAGCTGTTTACGGAGTCACCTAGTGCAG	24400 fluorescence intensity (a.u.)
AATTGATTTGGATTAATGGATACAACTTCACTCATATTCTCGGAGTCACCTAGTGCAG	32600 fluorescence intensity (a.u.)
CTATCCAATAATTTTGCCAATTAGCAAATACTAATTGATTCGGAGTCACCTAGTGCAG	29200 fluorescence intensity (a.u.)
CGTGTGACTGTTGCCGTGATGGTTTTGATGTTTGTTTTGGCGGAGTCACCTAGTGCAG	10200 fluorescence intensity (a.u.)
GGCCACTTTAATTGGTCCTGGAATGAATATTAGACTCTCCCGGAGTCACCTAGTGCAG	5890 fluorescence intensity (a.u.)
GTTAATGGATATACGGAAGGAAGTGCAGTGCCCTATATGCCGGAGTCACCTAGTGCAG	8760 fluorescence intensity (a.u.)
CTCTAATCCATTGATCAATCATCGACACCTCACGTTACAACGGAGTCACCTAGTGCAG	29000 fluorescence intensity (a.u.)
GGATTACCAAATTGGTTGGTTGAGCTCTGTCCTTGACTATCGGAGTCACCTAGTGCAG	5840 fluorescence intensity (a.u.)
ACAAATTTTCGGAGAGATTATACGTCTGTTGATGCTTAAGCGGAGTCACCTAGTGCAG	4120 fluorescence intensity (a.u.)
CTGCCTAATTTCAGAAAATTATGTGTTCACCAGATTTAAGCGGAGTCACCTAGTGCAG	12200 fluorescence intensity (a.u.)
CTAGATTATCACCGGCTAGCTTCTCCAACCCCAACCAAAGCGGAGTCACCTAGTGCAG	5460 fluorescence intensity (a.u.)
TAGGATAGATAATTGAGTATCCTTTAGCGGTTCAGCAACACGGAGTCACCTAGTGCAG	21900 fluorescence intensity (a.u.)
TTCATAATTTATTATATTTTCTCCATCATTTGAGACTATTCGGAGTCACCTAGTGCAG	12500 fluorescence intensity (a.u.)
CGTAGTGACGTGGTTAAATTAATCAAGATTGAGTTTTGTGCGGAGTCACCTAGTGCAG	12700 fluorescence intensity (a.u.)
AAAGGCCGTGATTGCCAGGGGTGTGAAGGAAATTCCCAATCGGAGTCACCTAGTGCAG	9900 fluorescence intensity (a.u.)
TGAGCTGTCAATTATTTGGGCCAAACACTACATTATGAGGCGGAGTCACCTAGTGCAG	14300 fluorescence intensity (a.u.)
TTTAAATTCTACAAATCAACTTAGTCACTGTTTGGCATATCGGAGTCACCTAGTGCAG	4950 fluorescence intensity (a.u.)

Reference: paper PMC7819943, “Rice protein-binding microarrays: a tool to detect cis-acting elements near promoter regions in rice”
